# From PubChem BioAssay AID488969 (Vanderbilt High Throughput Screening Facility, 2010)
# Values joined by “and” are separate entries in the source; they are usually repeats but may differ in a detail not shown here. Identical values can stand only once. In all, about 110,000 compounds were measured (“z-score”: median about -0.1, highest 2% from about 2 on). The list shows a part of the results.
# Target: Metabotropic glutamate receptor 8 (Rattus norvegicus) (UniProt P70579)
# Experiment: mGluR8 Gi/Go-coupled signaling modulation – cell-based, rat, thallium flux, HTS, primary screen (AID 488969)
# Conditions: HEK293 rat mGluR8, GIRK (G protein-gated inwardly rectifying potassium channel) thallium flux, FluoZin2; at 10 µM; stronger effect = higher value
# Chain of UniProt P70579 (P70579 whole entry, looked up): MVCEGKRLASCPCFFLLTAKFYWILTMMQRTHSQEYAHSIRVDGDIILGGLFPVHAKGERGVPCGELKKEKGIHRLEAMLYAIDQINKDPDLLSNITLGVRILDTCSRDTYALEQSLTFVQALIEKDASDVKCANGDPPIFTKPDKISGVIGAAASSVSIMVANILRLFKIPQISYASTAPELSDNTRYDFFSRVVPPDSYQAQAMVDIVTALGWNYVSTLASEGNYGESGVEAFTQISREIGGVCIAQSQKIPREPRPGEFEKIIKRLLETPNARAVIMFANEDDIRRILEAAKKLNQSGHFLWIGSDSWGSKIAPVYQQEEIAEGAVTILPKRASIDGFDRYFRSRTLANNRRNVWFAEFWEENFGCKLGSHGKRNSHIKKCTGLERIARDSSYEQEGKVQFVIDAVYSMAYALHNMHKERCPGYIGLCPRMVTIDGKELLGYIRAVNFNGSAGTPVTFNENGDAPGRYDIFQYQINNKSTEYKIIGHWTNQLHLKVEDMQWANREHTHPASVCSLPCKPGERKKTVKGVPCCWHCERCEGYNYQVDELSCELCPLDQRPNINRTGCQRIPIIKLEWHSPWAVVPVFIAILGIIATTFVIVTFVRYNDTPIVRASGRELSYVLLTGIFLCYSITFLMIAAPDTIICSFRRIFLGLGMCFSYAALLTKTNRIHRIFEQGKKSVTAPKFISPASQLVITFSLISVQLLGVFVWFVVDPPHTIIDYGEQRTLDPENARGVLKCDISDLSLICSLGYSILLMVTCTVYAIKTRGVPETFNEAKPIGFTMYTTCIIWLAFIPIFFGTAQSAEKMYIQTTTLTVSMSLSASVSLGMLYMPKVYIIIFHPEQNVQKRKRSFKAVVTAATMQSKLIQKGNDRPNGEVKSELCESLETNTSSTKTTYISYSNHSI
row,Structure (SMILES),z-score
1,Cc1ccccc1C(O)(Cc1ccccc1)C1CN2CCC1CC2 (stereo unspecified),-0.323
2,CN1CCN(C(=S)SCC(=O)Nc2ccc(Cl)cc2C(=O)c2ccccc2)CC1,-0.329
3,Cc1ccc(-n2nc(C)c(C3C(C#N)=C(N)Oc4c3c(=O)oc3ccccc43)c2Cl)cc1 (stereo unspecified),-0.16
4,O=c1[nH]c(=S)n(Cc2ccc(F)cc2)c(O)c1/C=N/N1CCCCC1,-0.0895
5,O=C(COc1ccc2ccccc2c1)N1CCN(Cc2c[nH]c3ccccc23)CC1,-0.00703
6,CCCCn1c(O)c(C(CC)=NCc2cccnc2)c(=O)[nH]c1=O,-0.0749
7,Cc1ccc2c(CN3CC=C(c4ccccc4)CC3)cc(=O)oc2c1C,-0.207
8,Cc1ccccc1CCNCc1ccc(Br)cc1,0.734
9,O=C(Cn1cnc2ccccc2c1=O)NCC(=O)N1CCC2(CC1)OCCO2,0.722
10,COc1cc(/C=C2\C(=O)NC(=O)N(c3ccccc3)C2=O)cc(OC)c1OC,-0.207
11,COc1ccc2[nH]c(C)c(CCN3CCC(=O)C(C)C3C)c2c1 (stereo unspecified),-0.132
12,CC1C(c2cccs2)=[N+]([O-])C(C)(C(=O)c2ccc(F)cc2)N1O (stereo unspecified),0.251
13,Cc1ccc(C2CC(=O)C(C=NCCN3CCN(C(=O)Cc4ccccc4)CC3)=C(O)C2)cc1 (stereo unspecified),-0.686
14,O=c1c2ccccc2nc(-c2ccoc2)n1-c1ccccc1Cl,1.33
15,Cc1cccnc1NC1=NCC(C)S1 (stereo unspecified),0.376
16,Cn1cc(C(=O)c2ccccc2)c2ccccc21,-0.512
17,O=c1c2ccccc2nc(-c2ccccc2)n1-n1cccc1,0.729
18,CCN1CCN(c2nc3ccccc3s2)CC1,-0.135
19,COc1ccccc1OCC(=O)Nc1ccc(Cl)cc1C(=O)c1ccccc1,-0.512

row,Structure (SMILES),z-score
1,CCn1cc(C(=O)N2CCC3(CC2)OCCO3)c(=O)c2cc(S(=O)(=O)N3CCCC3)ccc21,-0.0808
2,CCOc1cc(C=C2C(=O)NC(=O)NC2=O)ccc1OS(=O)(=O)c1ccccc1,0.715
3,CCOP(=O)(OCC)C(NC(=O)c1ccccc1)C(Cl)(Cl)Cl (stereo unspecified),-0.213
4,CCN1CCN(c2ccc(NC(=O)C(C)C)cc2Cl)CC1,0.168
5,CCCCc1nc2ccccc2c(=O)n1-c1ccc(O)cc1,0.0576
6,CCOC(=O)CN1C(=O)C2(C(C#N)=C(N)Oc3ccccc32)C(C(=O)OC)=C1C (stereo unspecified),0.00892
7,CN1CCN(c2cccc3c2C(=O)c2ccccc2C3=O)CC1,-0.771
8,O=c1[nH]c(=O)n(CCC2=CCCCC2)c(O)c1C=NCCCn1ccnc1,0.515
9,Cc1cccc(OP(=O)(Nc2cccnc2)Oc2cccc(C)c2)c1,-0.0316
10,Cc1cccc(N2CCc3c2nc2ccccc2c3N)c1,-0.172 and 1.53
11,Cc1ccc(-c2nn(Cc3ccccc3)cc2C=O)cc1,-0.296
12,Cc1[nH]n(-c2ccccc2)c(=O)c1C(c1ccc([N+](=O)[O-])cc1)c1c(C)[nH]n(-c2ccccc2)c1=O,-0.644
13,Cc1[nH]c2ccccc2c1CCCNC1CCCCC1,0.385
14,Nc1ccc2c(c1)Cc1ccccc1-2,-0.395
15,O=C1NC(=O)C(CCc2ccncc2)(Cc2cccc(Cl)c2Cl)C(=O)N1c1ccc(Br)cc1 (stereo unspecified),-1.33
16,O=C(c1cc(-c2cccnc2)nc2ccccc12)N1CCC2(CC1)OCCO2,-0.551
17,O=c1[nH]c(CN2CC=C(c3ccccc3)CC2)nc2cc(C(F)(F)F)ccc12,0.082
18,CC1=CC(=O)C2=C(C)CC(O)C3C(C)C(=O)OC3C12 (stereo unspecified),-0.859
19,OCCN1C2CCC1CC(O)(c1ccc(F)cc1)C2 (stereo unspecified),-0.263

row,Structure (SMILES),z-score
1,CC(=NCCN1CCCCC1)c1c(O)n(-c2ccc(Cl)cc2)c(=O)[nH]c1=O,0.081
2,CCC(=O)CC(c1ccccc1)c1c(O)c2ccccc2sc1=O (stereo unspecified),-0.144
3,COc1ccc(C(O)c2cc(OC)ccc2OP(=O)(N(C)C)N(C)C)cc1 (stereo unspecified),-0.13
4,COc1cc(C(c2c(O)c3ccccc3oc2=O)c2c(C)n(C)n(-c3ccccc3)c2=O)ccc1O (stereo unspecified),-0.181
5,c1ccc(C2NCc3ccccc3-n3cccc32)cc1 (stereo unspecified),-0.239
6,O=C(COc1ccccc1)N1CCN(CC2CC3C=CC2C3)CC1 (stereo unspecified),0.446
7,COCCCN1Cc2ccccc2C1=N,-0.132
8,Cc1nn(C2CCOC(C)(C)C2)c2c1C(c1ccc(OC(C)C)cc1)SCC(=O)N2 (stereo unspecified),-0.843
9,C#CCOCOCC#CCN(CC)CC,0.44
10,CN1CCC(n2nccc2N)CC1,1.1
11,Fc1ccc(C2NCCc3[nH]cnc32)cc1 (stereo unspecified),-1.62
12,Cc1ccccc1N1C(=O)CC(=O)NC1=O,0.515
13,CN(CC(=O)Nc1ccccc1-c1ccccc1)C1CCCCC1,0.245
14,CCOC(=O)c1nc2ccccc2c(=O)n1-c1ccc(C)cc1C,-1.02
15,Cc1ccc(Cn2nnnc2CN2CCC(n3nnc4cc(C(F)(F)F)ccc43)CC2)cc1,-0.00751
16,Cc1cccc(C)c1NC(=O)c1cccn(Cc2ccc3c(c2)OC(F)(F)O3)c1=O,-0.292
17,Cn1cc(C(=O)N2CCC3(CC2)OCCO3)c2c3ccccc3n(C)c2c1=O,0.775
18,O=C(NCC(c1cccnc1)N1CCN(c2ccccc2F)CC1)Oc1ccccc1 (stereo unspecified),0.181
